# Assay results taken from PubChem BioAssay AID1508642 (National Center for Advancing Translational Sciences (NCATS), 2021).
# Screen size: about 43,000 compounds; about 200 (0.47%) were called active. Inconclusive results (about 12%) are left out. Calls come from the whole dose curve; as a rule, active = well fitted cell-killing curve with a large enough effect; inconclusive = small, poorly fitted or top-dose-only effect, or effect the other way; inactive = flat fitted curve, though single readings scatter. This is one part of the list.
# Experiment: Cell viability qHTS assay in S16 Pmp22-F2sN cells; note: nearly all actives have a fitted effect of over 65% in size
# Conditions: S16 Pmp22-F2sN Schwann cells (luciferase reporters placed in the Pmp22 gene) viability, CellTiter-Glo, 24 h; series mostly up to 57.5 µM; activity change, negative = cytotoxicity: at the top concentration
# Summary of the method: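 S16 Schwann cells carrying the Pmp22-F2sN reporter, seeded in 1536-well format, were exposed to library compounds for 24 h at 37C. Viability was read as CellTiter-Glo luminescence after 15 min at room temperature.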
# % is set by controls: 0 for no effect and ±100 for the full control effect.
row,SMILES,"activity change, negative = cytotoxicity"
1,CN(C(=O)c1cc2c(s1)-c1ccc(Cl)cc1SC2)c1cccc(C(F)(F)F)c1,inactive: 23.1%
2,O=C(CN1C(=O)COc2ccc(S(=O)(=O)N3CCCCC3)cc21)NCc1ccc(Cl)cc1,inactive: 6.06%
3,CCOc1ccc(-c2cc(-c3nc(-c4cc(OC)c(OC)c(OC)c4)no3)[nH]n2)cc1,inactive: -12.9%
4,Cc1ccc(CN(Cc2ccco2)C(=O)COc2ccc(Cl)cc2)o1,inactive: -8.01%
5,Cc1cccc(N(C)C(=O)CCNS(=O)(=O)c2ccc3c(c2)CCN3C(=O)C2CC2)c1,inactive: -3.96%
6,N#Cc1ccc(CSc2nc3c(c(=O)[nH]2)CCCC3)cc1,inactive: -0.721%
7,COc1cc(C(CC(=O)NCCC(C)C)N2Cc3ccccc3C2=O)cc(OC)c1OC (configuration not stated),inactive: 3.45%
8,COc1cc(NC(=O)CN2CCN(CC(=O)Nc3ccc(F)cc3)CC2)cc(OC)c1,inactive: 6.69%
9,Fc1ccc2ncc3c(-c4ccccc4)n[nH]c3c2c1,inactive: 8.76%
10,COC(=O)CCn1cnc2onc(-c3cc(F)cc(F)c3)c2c1=O,inactive: 20.3%
11,Cc1ccc(C)c(CS(=O)(=O)c2cn(CC(=O)N(C(C)C)C(C)C)c3ccccc23)c1,inactive: 8.05%
12,Cn1ncc2c(Nc3cccc(F)c3)ncnc21,inactive: 15%
13,O=C(Nc1c(C(=O)Nc2ccccc2F)oc2ccccc12)c1cc2ccccc2o1,inactive: 4.44%
14,Cc1c(Cl)cccc1NC(=O)Cn1cnc2nc3c(cc2c1=O)CCCC3,inactive: -0.314%
15,Cc1ccc(-n2ncc3c(N4CCC(Cc5ccccc5)CC4)ncnc32)cc1,inactive: 10.1%
16,O=C(c1ccc2c(c1)N(Cc1ccccc1F)C(=O)c1ccccc1S2=O)N1CCOCC1 (configuration not stated),inactive: 12.5%
17,CC(C)(C)CC(=O)NC1CC(=O)N(c2ccc3c(c2)OCCO3)C1 (configuration not stated),inactive: 11.9%
18,Cc1ccc(CN2CCc3nc(N4CCN(C)CC4)ncc3C2)s1,inactive: 5.32%
19,COc1ccc2c(c1)c1c(c(=O)n(-c3ccccc3)c(=O)n1CC(=O)Nc1ccc(C)c(C)c1)n2C,inactive: 8.13%
20,CN(Cc1ccccc1)S(=O)(=O)c1nnc(NC(=O)c2ccccc2)s1,inactive: 0.748%
21,Cc1ccc2c(c1)cc1c(=O)n(CC(=O)N3CCCCC3)nc(C)n12,inactive: 16.1%
22,Cc1cccc(N(C)C(=O)CSc2nc3ncccc3o2)c1,inactive: 4.13%
23,O=C(NCC1CCCO1)c1c[nH]c2ccc(S(=O)(=O)Nc3cccc(C(F)(F)F)c3)cc2c1=O (configuration not stated),inactive: -1.77%
24,CCc1ccc(C(=O)c2cn(CC(=O)Nc3ccc(C)c(C)c3)c3ccccc3c2=O)cc1,inactive: -13.6%
25,COc1ccc(OCC(=O)Nc2cccc(-c3nc4ccccc4s3)c2C)cc1,inactive: 11.1%

row,SMILES,"activity change, negative = cytotoxicity"
1,O=C(NCCOCCn1c(=O)oc2ccccc21)Nc1ccc(F)cc1,inactive: -2.56%
2,Cc1ccc(NC(=O)C2CCN(S(=O)(=O)c3c(C)noc3/C=C/c3ccco3)CC2)cc1C,inactive: 19.9%
3,Cc1ccc(S(=O)(=O)c2cn(C)c3cc(N4CCCC(C)C4)c(F)cc3c2=O)c(C)c1 (configuration not stated),inactive: -19.3%
4,Cc1cc2c(cc1S(=O)(=O)N(CCN(C)C)Cc1ccco1)OCC(=O)N2,inactive: 9.52%
5,Cc1nc(N2CCCC2)ncc1C(=O)Nc1ccc(F)cc1F,inactive: 4.58%
6,COc1ccccc1OCC(=O)Nc1nc(-c2ccc(Br)cc2)ns1,inactive: 14.5%
7,CC1CCN(S(=O)(=O)c2ccc3c(c2)CCC(=O)N3CC(=O)Nc2cccc(C#N)c2)CC1,inactive: 0.885%
8,CCCCNC(=O)CSc1nnc(C)c2c(C)n(-c3ccccc3)nc12,inactive: -4.84%
9,Cc1ccc(Cn2c(C)c(CNCCCc3ccccc3)c(C(=O)O)c2C)cc1,inactive: 16.1%
10,Cc1ccc(-c2noc(CNC(=O)c3ccccc3)n2)cc1,inactive: -0.725%
11,CCC1CN(C(=O)N2CCC(C(=O)NCc3ccccc3C)CC2)c2ccccc2O1 (configuration not stated),inactive: -19.2%
12,Cc1ccc(-c2cc3c(n2-c2ccc(C)cc2)CC(C)(C)CC3=O)cc1,inactive: 11.3%
13,Cc1ccc(C2=NN(CC(=O)NCCN(CC(C)C)CC(C)C)C(=O)CC2)cc1,inactive: 8.06%
14,O=C(CSc1nnc2[nH]c(=O)cc(-c3ccccc3)n12)Nc1ccc(F)cc1F,inactive: -2.36%
15,Cc1ccc(C2=CC(c3c(F)cccc3Cl)n3ncnc3N2)cc1C (configuration not stated),inactive: -4.13%
16,Cc1cc(C)cc(NC(=O)C2CCCN2S(=O)(=O)c2cccc3nsnc23)c1 (configuration not stated),inactive: -12.7%
17,CC(=O)Nc1cc(-c2nc3ccccc3s2)ccc1C,inactive: -1.52%
18,Cc1cccc(-c2noc(-c3ccc(N4CCN(C)CC4)c([N+](=O)[O-])c3)n2)c1,inactive: 2.42%
19,COc1ccc(C)cc1NC(=O)c1ccc2c(c1)CCN2S(=O)(=O)c1ccc(Cl)cc1,inactive: -1.23%
20,COc1ccc(CNc2nc3c(c(=O)n(C)c(=O)n3C)n2Cc2ccccc2Cl)cc1,inactive: -2.69%
21,CCOC(=O)c1ccc(CN(Cc2ccccc2C)S(=O)(=O)c2ccc(C(C)(C)C)cc2)cc1,inactive: 3.42%
22,COc1cccc(C2C(C(=O)Nc3ccccc3)=C(C)Nc3nc(-c4ccccc4)nn32)c1OC (configuration not stated),inactive: -9.98%
23,CC(C)(C)OC(=O)N1CCC(c2nnc(SCc3ccccc3)o2)CC1,inactive: 3.52%
24,Cc1cc(NC(=O)COc2ccccc2)cc(-c2nc3ccccc3o2)c1O,inactive: 8.13%
25,COc1ccc(-c2noc(-c3ccc(N4CCCCC4C)c([N+](=O)[O-])c3)n2)cc1OC (configuration not stated),inactive: 11.2%

row,SMILES,"activity change, negative = cytotoxicity"
1,COc1ccccc1CNC(=O)c1ccc(N2Cc3cccc(OC)c3Oc3ncccc32)s1,inactive: 1.99%
2,CCCn1c(-c2cccc(Br)c2)nc2ccccc21,inactive: 1.25%
3,Cn1ncc(C(=O)N2CCN(c3ccc(F)cc3)CC2)c1C1CCN(C(=O)OC(C)(C)C)CC1,inactive: 9.6%
4,CCCN1C(=O)C(Cc2nc3ccccc3c(=O)n2-c2cccc(C)c2)c2ccccc21 (configuration not stated),inactive: -0.156%
5,Cc1cc(C)c2c(=O)cc(C(=O)Nc3sc4c(c3C(=O)NCc3cccnc3)CCCC4)oc2c1,inactive: 0.484%
6,COC(=O)c1cc(S(=O)(=O)NCC2CCN(Cc3ccc(C)cc3)CC2)c[nH]1,inactive: -22.5%
7,CC(=O)c1cccc(NC(=O)c2ccc(-n3c(C)nnc3C)cc2)c1,inactive: 0.397%
8,CCOc1ccc(-n2c(SCC(=O)Nc3ccc(F)cc3)nc3c([nH]c4ccccc43)c2=O)cc1,inactive: 12.7%
9,CCC(Sc1nc2nccnc2c(=O)n1Cc1ccc(OC)cc1)C(=O)NC1CCCCC1 (configuration not stated),inactive: 9.37%
10,CC(C)n1c(SCC(=O)Nc2ccc(F)cc2)nc2c(oc3ccccc32)c1=O,inactive: -0.114%
11,CCOc1ccccc1CNC(=O)c1ccc2c(c1)sc1nc(-c3cccc(OC)c3)cn12,inactive: -8.09%
12,CC(C)C12CN3CC(C(C)C)(CN(C1)C3c1ccc(OCc3ccccc3)cc1)C2=O (configuration not stated),inactive: 6.01%
13,COc1ccc(/C=C/C(=O)Nc2sc3c(c2C(N)=O)CCC(C)C3)cc1OC (configuration not stated),inactive: 7.94%
14,Cc1ccc2c(c1)N(C(=O)N1CCC(C(=O)NC3CCCCCC3)CC1)CC(C)O2 (configuration not stated),inactive: 0.823%
15,COc1cc(NC(=O)Cc2c(C(=O)O)c(C)cn2C)cc(OC)c1,inactive: 4.99%
16,CCc1cccc(NC(=O)CSc2ncccc2C(=O)Oc2ccccc2Cl)c1,inactive: 12.3%
17,CNC(=O)c1c[nH]c2ccc(S(=O)(=O)Nc3cccc(Cl)c3C)cc2c1=O,inactive: -9.17%
18,Cc1cc(C)cc(OCc2ccc(C(=O)Nc3ccccc3F)o2)c1,inactive: 7.81%
19,CCOC(=O)c1c(NC(=O)c2cc(C)on2)sc(C)c1C,inactive: 3.32%
20,Cc1ccc(-n2ncc3c(N4CCN(C)CC4)ncnc32)cc1Cl,inactive: -24.1%
21,CCOc1ccc(NC(=O)CCS(=O)(=O)c2cccc3nonc23)cc1,inactive: -17.5%
22,Cc1ccc(CSC2=Nc3ccccc3C3=NC(CC(=O)NC4CCCCC4)C(=O)N23)cc1 (configuration not stated),inactive: -21.5%
23,COc1ccc(CNC(=O)c2cc(Nc3ccc(C)cc3C)nc3ccccc23)cc1,inactive: -4.62%
24,CCCN(CCC)S(=O)(=O)c1ccc2c(c1)N(CC(=O)NC(C)c1ccccc1)C(=O)CS2 (configuration not stated),inactive: -8.18%
25,CCOc1ccc(NC(=O)C2CCCN(S(=O)(=O)c3ccc4[nH]c(=O)ccc4c3)C2)cc1 (configuration not stated),inactive: 2.46%

row,SMILES,"activity change, negative = cytotoxicity"
1,Cc1ccc(NC(=O)C(=O)c2cc(C)n(-c3ccc(F)cc3)c2C)cc1C,inactive: -13.6%
2,COc1cccc(-n2ccn(CC(=O)c3ccc(F)cc3)c(=O)c2=O)c1,inactive: 23.5%
3,COc1ccccc1N1CCN(C(=O)CSc2nc3ccccc3nc2Cc2ccccc2)CC1,inactive: 17.2%
4,CC(=O)c1ccc(N2C(=O)N(CC(=O)c3ccc(C)cc3)c3ccccc3S2(=O)=O)cc1,inactive: -0.844%
5,Cc1ccc2nc(-c3ccc(NC(=O)COc4ccccc4)cc3)sc2c1,inactive: 12.6%
6,CCN(c1cccc(C)c1)S(=O)(=O)c1nnc(NC(=O)c2ccccc2Cl)s1,inactive: -20.4%
7,COc1ccccc1N1CCN(C(=O)c2cc(-c3ccc(F)cc3)on2)CC1,inactive: 12.2%
8,COc1ccc(CCNC(=O)C(=O)NCC(c2ccc3c(c2)OCO3)N2CCOCC2)cc1OC (configuration not stated),inactive: 0.792%
9,Cc1cccc(-c2noc(CSc3nc(-c4ccc(F)cc4)cc(=O)[nH]3)n2)c1,inactive: -2.01%
10,Cc1cccn2c(=O)c(C(=O)NCCc3ccccc3)c(O)nc12,inactive: -10.4%
11,Cc1ccc2nc(CNC(=O)c3ccccc3)[nH]c2c1,inactive: 2.09%
12,CCOc1ccc(NC(=O)c2oc3ccccc3c2NC(=O)c2c(F)cccc2F)cc1,inactive: -3.02%
13,Cc1ccc(C2=Nc3ccccc3N(CC(=O)NCc3ccccc3Cl)C(=O)C2)cc1C,inactive: -24.8%
14,COc1ccc(N2Cc3cccc(C(=O)Nc4ccc(F)cc4)c3C2=O)cc1,inactive: -1.69%
15,COc1ccc(-n2ncc(C(=O)Nc3cccc(C(F)(F)F)c3)c2C2CCN(C(=O)OC(C)(C)C)CC2)cc1,inactive: 0.415%
16,CCOCCCN(Cc1ccco1)S(=O)(=O)c1cc2c(cc1C)NC(=O)CO2,inactive: 0.459%
17,CC(C)C(=O)NCC(c1ccc2c(c1)OCO2)N1CCN(c2ccccc2)CC1 (configuration not stated),inactive: -2.17%
18,Cc1c(C(=O)NCCc2ccc(Cl)cc2)sc2nc3n(c(=O)c12)CCCC3,inactive: -16.4%
19,Cc1ccccc1CN1c2ccccc2-c2nc(SCC(=O)NCc3ccccc3)ncc2S1(=O)=O,inactive: -11.1%
20,COc1cc(OC)c(OC)cc1CNc1sc2c(c1C(=O)Nc1ccccc1OC)CCC2,inactive: 6.48%
21,O=C(Nc1ccc2nc(SCC(=O)N3CCc4ccccc43)sc2c1)c1cccc(Cl)c1,inactive: -0.419%
22,CN(C(=O)CCS(=O)(=O)c1cc2c(cc1Cl)NC(=O)CO2)C1CCCCC1,inactive: 18.6%
